The values below come from patent publication US20210206856A1 (PANDION OPERATIONS, published 2021).

Assay [1] has as its target T1, mouse MAdCAM expressed on cells (mouse, UniProt Q61826 22-405).
T1 construct: whole, on cells
T1 sequence (looked up): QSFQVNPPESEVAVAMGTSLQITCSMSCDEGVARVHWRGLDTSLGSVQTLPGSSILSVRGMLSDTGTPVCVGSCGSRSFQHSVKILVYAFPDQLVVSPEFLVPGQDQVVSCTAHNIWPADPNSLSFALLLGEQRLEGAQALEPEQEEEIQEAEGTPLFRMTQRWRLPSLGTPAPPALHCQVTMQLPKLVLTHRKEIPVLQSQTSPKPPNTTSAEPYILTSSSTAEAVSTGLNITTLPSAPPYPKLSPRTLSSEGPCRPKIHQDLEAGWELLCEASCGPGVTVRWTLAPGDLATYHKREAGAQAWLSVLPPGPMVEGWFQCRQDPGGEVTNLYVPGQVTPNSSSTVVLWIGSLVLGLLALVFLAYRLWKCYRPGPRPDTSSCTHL
The assay can be described thus: cell binding.

The target in assay [2] is T2, human MAdCAM expressed on cells (human, UniProt Q13477 19-382).
T2 construct: whole, on cells; also called MADCAM1
T2 sequence (looked up): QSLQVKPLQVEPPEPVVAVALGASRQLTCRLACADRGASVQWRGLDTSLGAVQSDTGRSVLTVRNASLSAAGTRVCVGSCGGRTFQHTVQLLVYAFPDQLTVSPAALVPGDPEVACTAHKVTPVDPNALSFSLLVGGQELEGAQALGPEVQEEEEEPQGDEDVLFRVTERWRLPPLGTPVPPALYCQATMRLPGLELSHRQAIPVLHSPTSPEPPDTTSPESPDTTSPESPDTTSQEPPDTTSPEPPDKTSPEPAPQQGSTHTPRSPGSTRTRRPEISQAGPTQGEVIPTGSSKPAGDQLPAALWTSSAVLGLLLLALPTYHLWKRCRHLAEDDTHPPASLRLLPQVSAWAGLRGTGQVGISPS
Kind of assay: cell binding.

B1: MAdCAM Antibody Table 1 Clone 62 (scFv)
scFv: QVQLVQSGAEVKKPGSSVKVSCKASGGTFSSYAISWVRQAPGQGLEWMGWMEPHTGNTRYAQKFQGRVTITADESTSTAYMELSSLRSEDTAVYYCAKGGFSWFDPWGQGTLVTVSSGGGGSGGGGSGGGGSGGGG[letters of about 100 residues not shown]FGQGTRLEIK
Regarding B1, the binding result in assay [1] and in assay [2] was “binds” in each case.
